Measured values: the supplement of paper PMC11543636
Each value is the number of isolates with that result; steps that no isolate showed are left empty. MIC of clinical M. tuberculosis isolates from a national drug-resistance survey, broth microdilution on MYCOTB, UKMYC5 or UKMYC6 plates (ranges differ by plate), read after 10-21 days; higher = less susceptible. Call: the paper's susceptible [S] / resistant [R] by the drug's critical concentration (it differs by plate for some drugs); calls for ofloxacin and levofloxacin are not shown. MYCOTB plates carry ofloxacin; the paper halves those MICs to stand for levofloxacin, and they are doubled back here. The top step of a plate is printed with and without '>' in the source and is marked '>=' when plain; the plain lowest step of rifampicin and kanamycin on MYCOTB is marked '<='. Isolates that the source marks as part of the WHO data set are not listed here.

Legend:
Assay in all cases: Isolates counted by MIC; Broth microdilution on commercial drug-susceptibility plates, read by two operators.
[1] = tested on: Mycobacterium tuberculosis lineage 3 on plate UKMYC6 (383 isolates)
[2] = tested on: Mycobacterium tuberculosis lineage 2 on plate UKMYC5 (529 isolates)
[3] = tested on: Mycobacterium tuberculosis lineage 4 on plate MYCOTB (1613 isolates)
[4] = tested on: Mycobacterium tuberculosis lineage 2 on plate MYCOTB (3813 isolates)
[5] = tested on: Mycobacterium tuberculosis lineage 4 on plate UKMYC5 (155 isolates)
[6] = tested on: Mycobacterium tuberculosis lineage 2 on plate UKMYC6 (1557 isolates)
[7] = tested on: Mycobacterium tuberculosis lineage 1 on plate MYCOTB (31 isolates)
[8] = tested on: Mycobacterium tuberculosis lineage 4 on plate UKMYC6 (614 isolates)

NNC(=O)c1ccncc1 [isoniazid]
Conditions | isolate count
[1], MIC: 0.05 mg/L | 264 [S]
[1], MIC: 0.1 mg/L | 7 [S]
[1], MIC: 0.2 mg/L | 3 [R]
[1], MIC: 0.4 mg/L | 8 [R]
[1], MIC: 1.6 mg/L | 7 [R]
[1], MIC: 3.2 mg/L | 10 [R]
[1], MIC: 6.4 mg/L | 4 [R]
[1], MIC: ≤0.025 mg/L | 73 [S]
[1], MIC: ≥12.8 mg/L | 7 [R]
[2], MIC: 0.05 mg/L | 295 [S]
[2], MIC: 0.1 mg/L | 23 [S]
[2], MIC: 0.2 mg/L | 16 [R]
[2], MIC: 0.4 mg/L | 12 [R]
[2], MIC: 0.8 mg/L | 8 [R]
[2], MIC: >1.6 mg/L | 29 [R]
[2], MIC: ≤0.025 mg/L | 110 [S]
[2], MIC: ≥1.6 mg/L | 36 [R]
[3], MIC: 0.06 mg/L | 683 [S]
[3], MIC: 0.12 mg/L | 47 [S]
[3], MIC: 0.25 mg/L | 40 [R]
[3], MIC: 0.5 mg/L | 16 [R]
[3], MIC: 1 mg/L | 8 [R]
[3], MIC: 2 mg/L | 26 [R]
[3], MIC: >4 mg/L | 5 [R]
[3], MIC: ≤0.03 mg/L | 698 [S]
[3], MIC: ≥4 mg/L | 90 [R]
[4], MIC: 0.06 mg/L | 804 [S]
[4], MIC: 0.12 mg/L | 86 [S]
[4], MIC: 0.25 mg/L | 92 [R]
[4], MIC: 0.5 mg/L | 24 [R]
[4], MIC: 1 mg/L | 46 [R]
[4], MIC: 2 mg/L | 176 [R]
[4], MIC: >4 mg/L | 13 [R]
[4], MIC: ≤0.03 mg/L | 2300 [S]
[4], MIC: ≥4 mg/L | 270 [R]
[5], MIC: 0.05 mg/L | 109 [S]
[5], MIC: 0.1 mg/L | 7 [S]
[5], MIC: 0.2 mg/L | 2 [R]
[5], MIC: 0.4 mg/L | 1 [R]
[5], MIC: >1.6 mg/L | 6 [R]
[5], MIC: ≤0.025 mg/L | 26 [S]
[5], MIC: ≥1.6 mg/L | 4 [R]
[6], MIC: 0.05 mg/L | 526 [S]
[6], MIC: 0.1 mg/L | 54 [S]
[6], MIC: 0.2 mg/L | 35 [R]
[6], MIC: 0.4 mg/L | 18 [R]
[6], MIC: 0.8 mg/L | 18 [R]
[6], MIC: 1.6 mg/L | 63 [R]
[6], MIC: 3.2 mg/L | 90 [R]
[6], MIC: 6.4 mg/L | 11 [R]
[6], MIC: >12.8 mg/L | 3 [R]
[6], MIC: ≤0.025 mg/L | 727 [S]
[6], MIC: ≥12.8 mg/L | 12 [R]
[7], MIC: 0.06 mg/L | 8 [S]
[7], MIC: ≤0.03 mg/L | 20 [S]
[7], MIC: ≥4 mg/L | 3 [R]
[8], MIC: 0.05 mg/L | 267 [S]
[8], MIC: 0.1 mg/L | 15 [S]
[8], MIC: 0.2 mg/L | 14 [R]
[8], MIC: 0.4 mg/L | 9 [R]
[8], MIC: 0.8 mg/L | 9 [R]
[8], MIC: 1.6 mg/L | 13 [R]
[8], MIC: 3.2 mg/L | 10 [R]
[8], MIC: 6.4 mg/L | 2 [R]
[8], MIC: >12.8 mg/L | 2 [R]
[8], MIC: ≤0.025 mg/L | 266 [S]
[8], MIC: ≥12.8 mg/L | 7 [R]
